Consider 167 variants from the RNAGym collection of RNA variant scans (doi:10.7554/elife.90254).

The source gives no read counts; variants with many changes may rest on few reads.

Sequences and labels used below:
B1: OR4K15 (parent)
chain: GUUAACGGUCAUAGGCCAUGGAAACUAGGAGCACCAUUUCGCUGCCAGUGAAGAAAUGAACAAAGAAAAUCUGGGCCAGGCAGGCAUCAAAAGAAAUAGUCUUGCGCUCAACCAGAAAGUCUGUAAUCAUUUUAAGGGUA

The data set covers variants of B1. Description: self-cleavage, relative activity (ratio to wild type); higher = more cleavage; in vitro, sequencing; the parent is a self-cleaving ribozyme.
Take U9A A63C A68G A91G U97C U122A: the self-cleavage was determined as 0.08.
With U9C A64G U70G C85G the figure was 0.5; with U9C A89G U97G, 0.93; with G8A A27G A30U A89U, 1.18.
Consider U9C A67G U100C A118G, for which the self-cleavage was 1.62.
The figure for U9C U43C U103A is 0.5; for U9C A47G U70C A91G G115A it is 0.05.
As to U9C A30G A114G U127C, the self-cleavage was 0.64.
With U9C A27G U70C A98G A116U the figure was 0.09.
The figure for U9A A68G A92G is 0.89; for U9G A18G A52G it is 1.
With G8A U39A A67G the figure was 1.26.
As to U9C A11G A92G A95G C107U A126G U132C, the self-cleavage turned out to be 0.
Consider U9C U43C A59U A62G, for which the self-cleavage stood at 1.21.
Take U9C A63G U100A: the self-cleavage stood at 1.24.
U9C U49C A56G A89U A117G: the self-cleavage came to 1.53.
With U9A A54G A68U the figure was 1.27.
With G8A A64G G79A A116G the figure was 0.03; with G7U A68G U72C, 0.26.
The figure for U9C A66C A82G U100C is 1.73; for U9G U39C A69G it is 1.06.
U9C A59U A116G C128U: the self-cleavage came to 0.39.
With G7U U38C U39A A54G the figure was 1.91; with U9C A22G U43A A117G U122C, 1.27; with U9C U12C A36G A68G A86G A94G A117G, 0.55.
The figure for G7U A30G A68G is 1.71; for U9C C88U A90G A92G U103C C105U it is 0.03.
G8A A27C A67G: the self-cleavage is 1.2.
With U9C U108C G119A U124C the figure was 0.01; with U9C A66G A69G U103C A116G, 0.57; with U9C U49C A64G U131A, 1.25.
With U9C C25U A33G A56G A64G the figure was 1.18.
The figure for U9C A24G A36G A92G is 1.05; for U9A A59G A91G it is 0.68.
In the case of U9C A78G A96G, the self-cleavage stood at 0.34.
Take U9A U43G A66G A90G: the self-cleavage was 1.24.
U9C U49A A52C U103C U132C: the self-cleavage is 0.29.
With U9C A67G A68G A116G U120C the figure was 0.8; with U9C A11U U57C A118G, 1.03.
For U9C A30U U49C, the self-cleavage amounted to 1.25.
For U9A A22G A67U U70A A135G, the self-cleavage was 1.05.
As to U9C U26C U39C A56G A94G, the self-cleavage came out at 0.7.
The figure for U9C A47G A116C is 0.
With U9A U70G A91G A110G the figure was 0.03; with U9C U37C U57G, 1.97.
Consider U9C A24G A55G A66G U122C, for which the self-cleavage was found to be 1.37.
The figure for U9C A24G G123A is 1.28; for U9C C17U A33G U43C it is 0.36; for U9C A59G A125G it is 1.16.
The figure for G7U A66G A114G is 0.35; for U9C A23G A52G A90G U103A it is 0.23.
As to U9C A13U A23G U122C, the self-cleavage was found to be 2.01.
The figure for U9C A68G A118G is 0.6; for U9C A62G A69G A94G A118G A129G it is 0.39.
U9C A24G A95G U108C: the self-cleavage worked out at 0.02.
As for U9C A36U U38C, the self-cleavage was found to be 1.95.
The figure for U9A A30G A47C A66G A117G is 1.24.
As for U9A A36G U43C U72C A117U A118G, the self-cleavage came out at 0.28.
The figure for U9C A51G A60G C109U A116G is 0.5.
U9A A60G A95U: the self-cleavage turned out to be 1.31.
For U9A U49G A96G A117U, the self-cleavage came out at 1.22.
The figure for U9C A33G U43C G65U A69G U72A is 0.27; for G8C U19A A56G it is 1.63.
With U9A A23G U43A U103C G106U the figure was 0.06; with G7U A67G A82U, 0.34; with U9C U49C A59G U130C, 0.77.
Take U9A U37C U130C: the self-cleavage stood at 0.6.
The figure for U9C U19C A23G A69G A91G is 0.96; for G7U C35U A60G U127G it is 0.68.
With U9C A60G A117U the figure was 0.91; with U9C A11U U38C, 1.37; with U9A U39A A51G A60G A66G, 0.6.
The figure for U9C A22G U37C U49A A55G is 0.69; for U9A A22C A27C A62G it is 0.96; for U9C A82G A86U it is 1.68.
With G8C A47G U102C, the self-cleavage was 2.36.
With G7U A18C A24G U37C U38C G58U U122G, the self-cleavage is 1.23.
The figure for U9C U39A A62G U139C is 1.13; for U9C A36G C40U it is 1.94.
As for G8A A23G A67G U124C, the self-cleavage was determined as 1.08.
With U9C A33U U37C A69G A90G A116G U127C the figure was 0.25.
With U9C A11G A56G A66G A69G G80A the figure was 0.14; with U9C A54G A60G U70C A89U C105U, 0.17; with U9C A60G U108C, 0.06.
As to U9C A24G A96G C112U A126G, the self-cleavage turned out to be 0.03.
With U9A A22G A68G, the self-cleavage stood at 0.85.
Consider G7U U9A A24G, for which the self-cleavage is 1.59.
With U9C U43A G104C the figure was 0.03; with U9C A23U C61U A64U A114G, 0.41.
The figure for G7U U70C C76U A90G is 0.27; for U9C U49C A55G U100C A129G it is 2.25.
As for U9A U19A U70C U97A A114U, the self-cleavage was 0.05.
With U9C G79A U127A U131C the figure was 0.34; with G8A A51G U130C, 1.24; with U9A A63G U87C A140U, 0.92.
With U9C U12A U38C A89G U122A U127A the figure was 1.45; with U9G A18G C45A U120C, 0.61.
The figure for G8A A90G A96G A129G is 0.59.
Regarding U9A U49C A63G G83A U130C, the self-cleavage is 1.75.
With U9C A56G A68G A114G U122C U127C the figure was 0.09; with U9C A67G U127C, 1.76; with U9C U49C G74A A78G, 0.3.
The figure for U9C A69G A92G U100A U120C is 0.33; for U9A U38C U39A C42U A90G G106C it is 0.04; for U9C A24G A66G C76U A96U it is 0.3.
The figure for U9C G29U A54G A68G is 0.85; for U9C A27G A64G it is 1.25; for U9C A33G U43C A95G it is 0.63.
For the variant U9C A51U A52G A110G, the self-cleavage amounted to 0.12.
With U9C A54G A135C the figure was 0.81.
The figure for U9A A96G U130C is 1.04; for G7U U12C U43A it is 1.47.
The figure for U9A U12A A56G A59G U70C A95G is 0.3; for U9C A27G A51G it is 0.87; for U9G U26C A96G A98U it is 1.83.
For G8C A30G A52G A90G A92G U122C, the self-cleavage stood at 0.7.
The figure for U9A A22G A67G A135U U139C is 1.73; for U9C A60U A94G A96U U108C U124G it is 0.01; for U9C G28A G53A U130C it is 0.61.
As to G8A A59G A114G, the self-cleavage was found to be 0.18.
With U9C A22G U43C A60G A64G U70A A96U the figure was 1.05; with U9C A60G C121U, 1.73.
The figure for U9C U38C U70C U72A is 0.64; for U9C A18G A116G it is 0.78.
With U9C A13G A68G A92G the figure was 0.75; with U9C A23G A111G, 0.02.
U9C U120C U131A U133C: the self-cleavage stood at 0.53.
With U9C A51G U72C G137A the figure was 0.12.
The figure for U9C A18G A23G is 1.65.
In the case of U9C A54G A55G U72A U100C, the self-cleavage is 0.77.
For the variant U9C U38C A47G A116G, the self-cleavage was determined as 0.62.
U9C U19C A82G: the self-cleavage was found to be 0.62.
With U9C A13G A24G A56G A67G A135G the figure was 0.75.
The figure for U9C A96G A118U U130C is 0.37.
With G8U U49C A118G the figure was 1.47; with U9C G15A U19C U37A A60U, 1.51.
On to U9C G44A U70C A126G, for which the self-cleavage came out at 0.8.
As for U9C A66G A89C U127C, the self-cleavage came out at 0.96.
Take U9C G73U A90G: the self-cleavage is 0.2.
With U9C A13U A55U A86U the figure was 0.48; with U9C A69U C85U A89U, 2.01; with G8A A11U U70C, 0.18.
Consider U9C A89U U131C, for which the self-cleavage was 1.93.
For U9C A18G U37C A62U U97A A129G, the self-cleavage stood at 1.69.
In the case of U9A A51C C85U U120C, the self-cleavage is 0.5.
Regarding U9C A91G U139C, the self-cleavage came out at 1.5.
With U9C A92G U102C U122A the figure was 1.16.
Turning to U9A U49C A89G, the self-cleavage was 1.01.
Take U9C U37C A67G U139A: the self-cleavage turned out to be 0.43.
U9A A63G C128A: the self-cleavage came to 1.14.
With G7U A11G A95G the figure was 1.76.
The figure for U9C A54G U72C A78U A86G is 0.08.
With U9C U39A A55G A64G the figure was 1.93; with U9C A51C A64G A96G U122C, 2.02; with G8A A52G U120C U130C, 0.73.
In the case of U9C A33U A64G, the self-cleavage amounted to 2.03.
Regarding U9C A82U G137U, the self-cleavage came to 0.45.
The figure for G8U U38A U39A A134G is 1.65.
With U9C A30G A47G U131C the figure was 1.17; with U9C A22G U87C, 1.2; with U9C A54U A86G U103C, 0.69.
U9A A66G U97C U127C: the self-cleavage turned out to be 0.9.
The figure for U9C A64G A66G A86U A111G is 0.13; for G8U A11U A23G G115U A125U U131C it is 0.08; for U9A A30G G106U A116G it is 0.03.
Consider U9A A36G A63U C88U, for which the self-cleavage is 0.74.
With U9C A27G G44U A55G, the self-cleavage is 0.34.
